Experimental data reported in article PMC4336329 (PLoS ONE, 2015).
Out of some 310,000 compounds screened, about 2,200 (0.71%) showed an effect of 50% or more. Effects have a minus sign here. The list shows a part of the results.

These compounds were tested against human ether-à-go-go-related gene (hERG) potassium channel (human, UniProt Q12809) (assay: primary screen, population patch clamp on CHO cells stably expressing hERG).
Sequence of human ether-à-go-go-related gene (hERG) potassium channel (Q12809 whole entry, looked up): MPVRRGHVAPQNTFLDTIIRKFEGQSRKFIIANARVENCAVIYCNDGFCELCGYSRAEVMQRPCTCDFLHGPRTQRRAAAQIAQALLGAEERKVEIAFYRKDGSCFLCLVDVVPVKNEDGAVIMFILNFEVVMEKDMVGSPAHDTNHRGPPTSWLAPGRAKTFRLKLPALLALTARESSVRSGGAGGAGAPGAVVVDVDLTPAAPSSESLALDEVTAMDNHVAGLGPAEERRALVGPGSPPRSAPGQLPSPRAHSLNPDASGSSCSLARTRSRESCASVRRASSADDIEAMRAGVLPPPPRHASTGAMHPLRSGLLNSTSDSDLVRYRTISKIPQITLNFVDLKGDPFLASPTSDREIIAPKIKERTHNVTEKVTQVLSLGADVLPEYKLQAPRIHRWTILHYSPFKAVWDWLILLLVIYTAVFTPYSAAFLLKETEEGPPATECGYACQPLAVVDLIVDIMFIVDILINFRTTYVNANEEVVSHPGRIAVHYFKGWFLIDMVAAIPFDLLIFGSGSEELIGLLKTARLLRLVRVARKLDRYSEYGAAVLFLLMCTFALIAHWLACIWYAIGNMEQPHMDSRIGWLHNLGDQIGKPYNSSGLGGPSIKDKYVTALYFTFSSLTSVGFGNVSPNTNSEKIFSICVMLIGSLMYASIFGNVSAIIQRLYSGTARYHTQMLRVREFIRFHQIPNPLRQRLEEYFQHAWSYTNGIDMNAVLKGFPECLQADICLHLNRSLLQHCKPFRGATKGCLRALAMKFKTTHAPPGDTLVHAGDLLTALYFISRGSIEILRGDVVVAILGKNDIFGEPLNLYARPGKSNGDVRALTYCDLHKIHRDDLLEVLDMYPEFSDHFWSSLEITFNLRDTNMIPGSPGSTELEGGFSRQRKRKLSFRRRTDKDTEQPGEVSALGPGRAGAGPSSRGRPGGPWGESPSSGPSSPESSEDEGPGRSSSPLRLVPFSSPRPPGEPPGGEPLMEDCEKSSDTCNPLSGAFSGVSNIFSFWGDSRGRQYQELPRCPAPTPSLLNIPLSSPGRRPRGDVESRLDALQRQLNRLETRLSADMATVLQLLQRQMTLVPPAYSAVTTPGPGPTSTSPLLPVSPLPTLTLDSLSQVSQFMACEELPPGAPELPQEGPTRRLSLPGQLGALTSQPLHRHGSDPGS

SMILES | hERG current change (%, negative = inhibition) at 1uM [%]
CC(C)(C)OC(=O)N/N=C/c1ccc(C(=O)O)cc1 | 13.8
Cc1ccccc1OCC(=O)Nc1nnc(C2CCCCC2)s1 | 12.7
COc1cccc(NC(=O)c2cc3ccccc3oc2=O)c1 | 15.2
CC(C(=O)Nc1ccc(F)c(F)c1F)N1CCCCCC1 (centres unmarked) | 11.1
CCOc1c(C)cnc2c1c(=O)n(Cc1ccccc1F)c(=O)n2C | 9.06
CCOc1cc(C2C3=C(CC(C)(C)CC3=O)N(CCOC)C3=C2C(=O)CC(C)(C)C3)ccc1O | 10.6
COc1cccc(C(=O)NNc2c3ccccc3nc3ccccc23)c1 | 13.1
Cc1cc(-c2c(C)n([O-])c(C)c(C)[n+]2=O)ccc1F | 6.88
NS(=O)(=O)c1ccc(CCNC(=O)c2ccc(NC3=NC4CS(=O)(=O)CC4S3)cc2)cc1 (centres unmarked) | 8.41
N#Cc1cc(NC2CCCC2)c([N+](=O)[O-])cc1C#N | 11.4
CCn1c(SCC(=O)Nc2ccc(NC(=O)c3cccs3)cc2)nnc1-c1cccnc1 | 5.51
Cc1cc(C(=O)OCC(=O)NCc2ccc(Cl)cc2)c(C)o1 | 8.52
O=C(NNC(=O)c1cc(Br)ccc1O)c1csc(N2CCOCC2)n1 | -1.7
CCNc1nc(NCC)nc(C(=O)NN)n1 | 8.33
COc1ccc(Br)cc1CNC(=O)C1CCC(=O)N1C(C)C (centres unmarked) | 0.907
CCn1c(SCC(=O)N2CCCCC2)nc(O)cc1=O | -0.348
O=C1N=C(N2CCOCC2)SC1=C1CCCCC1 | 2.3
CC1CN(C(=O)c2cc(COc3c(F)cccc3F)on2)CCN1C (centres unmarked) | 15.3
CN(Cc1ccno1)Cc1cn(Cc2ccccc2)nc1-c1ccc2c(c1)OCO2 | 2.29
CCOC(=O)c1ccc(NC(=O)c2nc[nH]c2C(=O)N(CC)CC)cc1 | 6.08
CCOC(=O)c1sc2nc(CC(=O)OC)nc(NCCN(CC)CC)c2c1C | -42.2
C=CCN(CC=C)Cc1c(C)[nH]c2ccc(C(=O)OCC)cc2c1=O | -5.67

SMILES | hERG current change (%, negative = inhibition) at 1uM [%]
CC1(C)CC(=O)c2sc(NC(=O)c3ccco3)nc2C1 | 14.4
CCCc1cc(C(=O)Cc2nc3ccccc3s2)c(O)cc1O | -3.42
CC(C)(C)n1nc2c(c1NC(=O)COc1ccc(Cl)cc1)CS(=O)(=O)C2 | -18
CCOC(=O)c1c(NC(=O)C(C)N2CCN(S(=O)(=O)c3cccs3)CC2)sc2c1CCC(C)C2 (centres unmarked) | 7.27
CCOc1ccc(N2C(=O)NC(=O)/C(=C\c3ccc(N4CCOCC4)cc3C)C2=O)cc1 | 3.16
CC[n+]1c(/C=C2\C=C(C)CC(C)(C)C2)sc2ccccc21.[I-] | -4.87
CC1CCN(C(=O)CN2C(=O)c3ccccc3S2(=O)=O)CC1 | 9.21
CC12CC3CC(C)(C1)CC(N)(C3)C2.Cl | 18
Cc1cc(C)n(CC(O)CN(c2ccccc2)S(=O)(=O)c2ccccc2)n1 (centres unmarked) | 11.4
Cc1csc(NC(=O)CSc2nnc(-c3ccc(S(=O)(=O)N4CCCC4)cc3)o2)n1 | 1.05
CC(=O)Nc1ccc(S(=O)(=O)NCCC(=O)OCc2ccc([N+](=O)[O-])cc2)cc1 | -16.8
CC(=O)Nc1ccc(NC(=S)NC(=O)c2oc3ccccc3c2C)cc1 | 15.3
COc1cccc(NC(=O)CNC(=O)Cn2cnc3sc(C)c(C)c3c2=O)c1 | 17.7
CN1CCN(C(=O)c2ccc3c(=O)n(Cc4ccc(Cl)cc4)c(=S)[nH]c3c2)CC1 | 0.71
CC(C)NC(=O)CCn1nc(-c2ccc(Cl)cc2)c2ccccc2c1=O | 14.5
CCN(C(=O)c1cc([N+](=O)[O-])ccc1NCc1cccnc1)c1ccccc1 | 8.03
Nc1ccc(C(O)(C(F)(F)F)C(F)(F)F)cc1 | 19
CCN1CCN(S(=O)(=O)c2ccc(OC)c(NC(=O)c3ccccc3F)c2)CC1 | 1.48
O=C1CCN(Cc2ccc(O)cc2)CCN1CCO | 7.6
COC(=O)CC(c1ccc(F)cc1)n1c(C)ccc1C (centres unmarked) | 10.3
O=C(Nc1ncccc1O)c1cccc(S(=O)(=O)NCc2ccccc2)c1 | 12.4
COc1ccc(S(=O)(=O)NCc2ccccc2)cc1Br | 14.9
